# Measured values published in the supplement of paper PMC8728848.
# This is one part of the list.
# B1: FBG3 (Homo sapiens), Q9H4M3 (protein)
# chain: MAVGNINELPENILLELFTHVPARQLLLNCRLVCSLWRDLIDLVTLWKRKCLREGFITEDWDQPVADWKIFYFLRSLHRNLLHNPCAEEGFEFWSLDVNGGDEWKVEDLSRDQRKEFPNDQVKKYFVTSYYTCLKSQVVDLKAEGYWEELMDTTRPDIEVKDWFAARPDCGSKYQLCVQLLSSAHAPLGTFQPDPATIQQKSDAKWREVSHTFSNYPPGVRYIWFQHGGVDTHYWAGWYGPRVTNSSITIGPPLP
# Tests used:
# Assay in all cases: glycan array binding signal (z-score within array); higher = stronger binding
# Conditions in all cases: glycan notation: IUPAC condensed, linker removed
# [1] = biological target: Neu5Ac(a2-3)Gal(b1-3)GlcNAc6S
# In short: (§1)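 The Consortium for Functional Glycomics database supplied 3228 glycan arrays, of which those lacking an available protein sequence were dropped. The binding signal, a within-array Z-score, was averaged across arrays of the same protein sequence and across linkers. Negative scores can be read as non-binding.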
# [2] = biological target: Neu5Ac(a2-3)Gal(b1-3)[Fuc(a1-4)]GlcNAc
# In short: as §1
# [3] = biological target: Neu5Ac(a2-3)Gal(b1-3)[Fuc(a1-4)]GlcNAc(b1-3)Gal(b1-4)[Fuc(a1-3)]GlcNAc
# In short: as §1
# [4] = biological target: Neu5Ac(a2-3)Gal(b1-3)[Neu5Ac(a2-3)Gal(b1-4)]GlcNAc
# In short: as §1
# [5] = biological target: Neu5Ac(a2-3)Gal(b1-3)[Neu5Ac(a2-6)]GalNAc
# In short: as §1
# Neu5Ac(a2-3)Gal(b1-4)Glc = biological target: Neu5Ac(a2-3)Gal(b1-4)Glc
# In short: as §1
# [6] = biological target: Neu5Ac(a2-3)Gal(b1-4)GlcNAc
# In short: as §1
# [7] = biological target: Neu5Ac(a2-3)Gal(b1-4)GlcNAc(b1-3)Gal(b1-3)GlcNAc
# In short: as §1
# [8] = biological target: Neu5Ac(a2-3)Gal(b1-4)GlcNAc(b1-3)Gal(b1-4)GlcNAc
# In short: as §1
# [9] = biological target: Neu5Ac(a2-3)Gal(b1-4)GlcNAc(b1-3)Gal(b1-4)GlcNAc(b1-3)Gal(b1-4)GlcNAc
# In short: as §1
# [10] = biological target: Neu5Ac(a2-3)Gal(b1-4)GlcNAc(b1-3)Gal(b1-4)[Fuc(a1-3)]GlcNAc
# In short: as §1
# [11] = biological target: Neu5Ac(a2-3)Gal(b1-4)GlcNAc(b1-6)[Gal(b1-3)]GalNAc
# In short: as §1
# [12] = biological target: Neu5Ac(a2-3)Gal(b1-4)GlcNAc6S
# In short: as §1
# [13] = biological target: Neu5Ac(a2-3)Gal(b1-4)[Fuc(a1-3)]GlcNAc
# In short: as §1
# [14] = biological target: Neu5Ac(a2-3)Gal(b1-4)[Fuc(a1-3)]GlcNAc(b1-3)Gal
# In short: as §1
# [15] = biological target: Neu5Ac(a2-3)Gal(b1-4)[Fuc(a1-3)]GlcNAc(b1-3)Gal(b1-4)GlcNAc
# In short: as §1
# [16] = biological target: Neu5Ac(a2-3)Gal(b1-4)[Fuc(a1-3)]GlcNAc(b1-3)Gal(b1-4)[Fuc(a1-3)]GlcNAc(b1-3)Gal(b1-4)[Fuc(a1-3)]GlcNAc
# In short: as §1
# [17] = biological target: Neu5Ac(a2-3)Gal(b1-4)[Fuc(a1-3)]GlcNAc6S
# In short: as §1
# [18] = biological target: Neu5Ac(a2-3)Gal6S(b1-4)GlcNAc
# In short: as §1
# [19] = biological target: Neu5Ac(a2-3)Gal6S(b1-4)[Fuc(a1-3)]GlcNAc
# In short: as §1
# Neu5Ac(a2-3)GalNAc = biological target: Neu5Ac(a2-3)GalNAc
# In short: as §1
# [20] = biological target: Neu5Ac(a2-3)GalNAc(b1-4)GlcNAc
# In short: as §1
# [21] = biological target: Neu5Ac(a2-3)[GalNAc(b1-4)]Gal(b1-4)Glc
# In short: as §1
# [22] = biological target: Neu5Ac(a2-3)[GalNAc(b1-4)]Gal(b1-4)GlcNAc
# In short: as §1
# [23] = biological target: Neu5Ac(a2-3)[Neu5Ac(a2-6)]GalNAc
# In short: as §1
# Neu5Ac(a2-6)Gal = biological target: Neu5Ac(a2-6)Gal
# In short: as §1
# Neu5Ac(a2-6)Gal(b1-4)Glc = biological target: Neu5Ac(a2-6)Gal(b1-4)Glc
# In short: as §1
# [24] = biological target: Neu5Ac(a2-6)Gal(b1-4)GlcNAc
# In short: as §1
# [25] = biological target: Neu5Ac(a2-6)Gal(b1-4)GlcNAc(b1-2)Man(a1-3)[Neu5Ac(a2-6)Gal(b1-4)GlcNAc(b1-2)Man(a1-6)]Man(b1-4)GlcNAc(b1-4)GlcNAc
# In short: as §1
# [26] = biological target: Neu5Ac(a2-6)Gal(b1-4)GlcNAc(b1-3)Gal(b1-4)GlcNAc
# In short: as §1
# [27] = biological target: Neu5Ac(a2-6)Gal(b1-4)GlcNAc(b1-3)Gal(b1-4)[Fuc(a1-3)]GlcNAc(b1-3)Gal(b1-4)[Fuc(a1-3)]GlcNAc
# In short: as §1
# [28] = biological target: Neu5Ac(a2-6)Gal(b1-4)GlcNAc6S
# In short: as §1
# Neu5Ac(a2-6)GalNAc = biological target: Neu5Ac(a2-6)GalNAc
# In short: as §1
# [29] = biological target: Neu5Ac(a2-6)GalNAc(b1-4)GlcNAc
# In short: as §1
# Neu5Ac(a2-8)Neu5Ac = biological target: Neu5Ac(a2-8)Neu5Ac
# In short: as §1
# [30] = biological target: Neu5Ac(a2-8)Neu5Ac(a2-3)Gal(b1-4)Glc
# In short: as §1
# [31] = biological target: Neu5Ac(a2-8)Neu5Ac(a2-3)[GalNAc(b1-4)]Gal(b1-4)Glc
# In short: as §1
# [32] = biological target: Neu5Ac(a2-8)Neu5Ac(a2-8)Neu5Ac
# In short: as §1
# [33] = biological target: Neu5Ac(a2-8)Neu5Ac(a2-8)Neu5Ac(a2-3)Gal(b1-4)Glc
# In short: as §1
# [34] = biological target: Neu5Ac(a2-8)Neu5Ac(a2-8)Neu5Ac(a2-3)[GalNAc(b1-4)]Gal(b1-4)Glc
# In short: as §1
# [35] = biological target: Neu5Ac(a2-8)Neu5Ac(a2-8)Neu5Ac(a2-8)Neu5Ac(a2-3)[GalNAc(b1-4)]Gal(b1-4)Glc
# In short: as §1
# Neu5Ac(b1-6)GalNAc = biological target: Neu5Ac(b1-6)GalNAc
# In short: as §1
# [36] = biological target: Neu5Ac(b2-6)Gal(b1-4)GlcNAc
# In short: as §1
# [37] = biological target: Neu5Ac9Ac(a2-6)Gal(b1-4)GlcNAc
# In short: as §1
# [38] = biological target: Neu5Gc(a2-3)Gal(b1-3)GlcNAc
# In short: as §1
# [39] = biological target: Neu5Gc(a2-3)Gal(b1-3)[Fuc(a1-4)]GlcNAc
# In short: as §1
# Neu5Gc(a2-3)Gal(b1-4)Glc = biological target: Neu5Gc(a2-3)Gal(b1-4)Glc
# In short: as §1
# [40] = biological target: Neu5Gc(a2-3)Gal(b1-4)GlcNAc
# In short: as §1
# [41] = biological target: Neu5Gc(a2-3)Gal(b1-4)[Fuc(a1-3)]GlcNAc
# In short: as §1
# [42] = biological target: Neu5Gc(a2-3)Gal(b1-4)[Fuc(a1-4)]GlcNAc
# In short: as §1
# [43] = biological target: Neu5Gc(a2-6)Gal(b1-4)GlcNAc
# In short: as §1
# Neu5Gc(a2-6)GalNAc = biological target: Neu5Gc(a2-6)GalNAc
# In short: as §1
binder,measurement,setting,value
B1,glycan array binding signal (z-score),[1],-0.738
same,glycan array binding signal (z-score),[2],-0.503
same,glycan array binding signal (z-score),[3],0.235
same,glycan array binding signal (z-score),[4],-0.437
same,glycan array binding signal (z-score),[5],-0.531
same,glycan array binding signal (z-score),Neu5Ac(a2-3)Gal(b1-4)Glc,-0.379
same,glycan array binding signal (z-score),[6],-0.478
same,glycan array binding signal (z-score),[7],-0.658
same,glycan array binding signal (z-score),[8],-0.44
same,glycan array binding signal (z-score),[9],-0.726
same,glycan array binding signal (z-score),[10],-0.634
same,glycan array binding signal (z-score),[11],-0.608
same,glycan array binding signal (z-score),[12],-0.064
same,glycan array binding signal (z-score),[13],-0.293
same,glycan array binding signal (z-score),[14],-0.638
same,glycan array binding signal (z-score),[15],0.243
same,glycan array binding signal (z-score),[16],-0.514
same,glycan array binding signal (z-score),[17],-0.392
same,glycan array binding signal (z-score),[18],-0.101
same,glycan array binding signal (z-score),[19],-0.428
same,glycan array binding signal (z-score),Neu5Ac(a2-3)GalNAc,-0.343
same,glycan array binding signal (z-score),[20],-0.571
same,glycan array binding signal (z-score),[21],-0.404
same,glycan array binding signal (z-score),[22],-0.397
same,glycan array binding signal (z-score),[23],-0.518
same,glycan array binding signal (z-score),Neu5Ac(a2-6)Gal,0.511
same,glycan array binding signal (z-score),Neu5Ac(a2-6)Gal(b1-4)Glc,-0.34
same,glycan array binding signal (z-score),[24],-0.28
same,glycan array binding signal (z-score),[25],-0.303
same,glycan array binding signal (z-score),[26],-0.545
same,glycan array binding signal (z-score),[27],-0.363
same,glycan array binding signal (z-score),[28],0.242
same,glycan array binding signal (z-score),Neu5Ac(a2-6)GalNAc,-0.355
same,glycan array binding signal (z-score),[29],-0.622
same,glycan array binding signal (z-score),Neu5Ac(a2-8)Neu5Ac,-0.471
same,glycan array binding signal (z-score),[30],-0.551
same,glycan array binding signal (z-score),[31],-0.623
same,glycan array binding signal (z-score),[32],-0.672
same,glycan array binding signal (z-score),[33],-0.429
same,glycan array binding signal (z-score),[34],0.271
same,glycan array binding signal (z-score),[35],-0.467
same,glycan array binding signal (z-score),Neu5Ac(b1-6)GalNAc,-0.207
same,glycan array binding signal (z-score),[36],-0.75
same,glycan array binding signal (z-score),[37],0.011
same,glycan array binding signal (z-score),[38],-0.078
same,glycan array binding signal (z-score),[39],-0.766
same,glycan array binding signal (z-score),Neu5Gc(a2-3)Gal(b1-4)Glc,0.058
same,glycan array binding signal (z-score),[40],-0.448
same,glycan array binding signal (z-score),[41],-0.021
same,glycan array binding signal (z-score),[42],-0.596
same,glycan array binding signal (z-score),[43],-0.108
same,glycan array binding signal (z-score),Neu5Gc(a2-6)GalNAc,-0.211
